Laboratory results published in PubChem BioAssay AID1645852 (National Center for Advancing Translational Sciences (NCATS), 2021).
Screen size: about 1,200 compounds; about 160 (13%) were called active. The shares of active, inactive and inconclusive entries below differ from those in the screen. Calls follow the shape of the dose curve; as a rule, active = well fitted inhibition curve with a large enough effect; inconclusive = small, poorly fitted or top-dose-only effect; inactive = no such curve, though single readings can be large or run the other way. Potencies beside an inconclusive call are fits to weak or partial responses and may not hold up.

These compounds were tested against Inositol hexakisphosphate kinase 1 (Homo sapiens) (UniProt Q92551) (assay: Confirmatory qHTS assay for small molecule inhibitors of Inositol hexaphosphate kinase 1 (IP6K1)). Details: recombinant IP6K1 kinase, ADP-Glo luminescence, 2 h; series mostly up to 49 µM; activity change, negative = inhibition: at the top concentration.
UniProt Q92551, sequence (Q92551 whole entry, looked up): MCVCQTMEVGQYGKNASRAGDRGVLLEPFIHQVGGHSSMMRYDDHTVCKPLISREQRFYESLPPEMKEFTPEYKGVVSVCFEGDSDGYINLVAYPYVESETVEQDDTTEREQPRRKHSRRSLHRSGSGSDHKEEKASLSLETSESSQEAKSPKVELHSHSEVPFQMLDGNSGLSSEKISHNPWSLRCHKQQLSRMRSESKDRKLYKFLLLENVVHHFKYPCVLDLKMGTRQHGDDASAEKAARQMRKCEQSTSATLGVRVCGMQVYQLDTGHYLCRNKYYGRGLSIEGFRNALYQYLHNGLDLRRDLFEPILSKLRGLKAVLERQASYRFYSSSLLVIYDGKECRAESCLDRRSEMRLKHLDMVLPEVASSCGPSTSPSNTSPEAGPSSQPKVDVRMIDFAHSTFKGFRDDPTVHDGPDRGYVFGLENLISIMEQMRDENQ
Summary of the method: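 ADP-Glo Max, luminescent ADP readout. Premix of 1.3 mM ATP + 130 uM IP6 (dispensed conc.), compounds at several concentrations, 2 hr RT kinase reaction, then 1 hr depletion and 45 min detection steps, all at RT.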
% is scaled to controls: 0 for no effect and ±100 for the full control effect; potency is read from the fitted curve at half-maximal effect; tags tell the direction and shape of the fitted curve.
Also: nearly all actives have a fitted effect of over 65% in size.

SMILES	activity change, negative = inhibition	Potency
Cc1ccc(-c2cc(C(=O)Oc3ccccc3Cl)no2)cc1C	inactive: 30.1%	
c1cc(Nc2cc(C3CC3)[nH]n2)nc(Nc2ccc3nc[nH]c3c2)n1		inconclusive: 4.11 µM [inhibitor, partial curve]
O=C(NCc1cccc(C(F)(F)F)c1)c1ccc2nnc(Cc3ccco3)n2c1		inconclusive: 20.6 µM [inhibitor, partial curve]
O=C(Nc1ccc(I)cc1)c1cc(-c2ccc[nH]2)n[nH]1		inconclusive: 8.2 µM [inhibitor, partial curve, poor fit]
COc1ccc(Br)cc1[C@@H]1Nc2ccc(C(=O)O)cc2[C@@H]2C=CC[C@@H]21		inconclusive: 16.4 µM [inhibitor, partial curve]
CCOC(=O)c1cccc(NC(=O)c2oc3c(c2C)-c2nn(CC)cc2CC3)c1		inconclusive: 18.4 µM [inhibitor, single point]
Cc1ccc(OCC(=O)Nc2ccccc2OCc2cc(=O)n3ccccc3n2)cc1C	inactive: -4.38%	
c1cnc2nc(-c3c[nH]c4ncccc34)[nH]c2c1		inconclusive: 31.6 µM [inhibitor, partial curve]
C[C@@H]1CN(c2cc(C3CC(O)C3)ncn2)C[C@H](C)O1 (some centres undefined)	inactive: -1.13%	
COc1ccc2nc3n(c2c1)[C@@H](CNC(=O)c1ccc(F)cc1)COC3		inconclusive: 18.8 µM [inhibitor, partial curve]
O=C(Nc1ccc(N2CCN(c3ccc(F)cc3)CC2)c(C(=O)O)c1)c1cccs1		inconclusive: 11.6 µM [inhibitor, partial curve]
Fc1cc(-c2cccc3ncc(-c4cnn(C5CCNCC5)c4)nc23)cc(F)c1CN1CCOCC1	inactive: -4.18%	
CCOc1cccc2c1N[C@@H](c1ccc(C(=O)O)cc1)[C@H]1CC=C[C@@H]21		active: 20.6 µM
CCC(=O)c1cc(-c2ccc(Cl)cc2)n(-c2ccc(S(N)(=O)=O)cc2)c1C		inconclusive: 10.3 µM [inhibitor, partial curve]
c1ccc(Nc2cc3c(cn2)NCCN(Cc2ccc4[nH]ccc4c2)C3)cc1	inactive: -9.77%	
COc1cccc(CNC(=O)c2nn(C)c3c2CSc2ccccc2-3)c1		inconclusive: 10.3 µM [inhibitor, single point]
Cc1ccc(-c2nnc3ccc(Nc4cccc(N(C)C)c4)nn23)nc1	inactive: -11.4%	
O=C(Nc1ccc2oc(-c3cccnc3)nc2c1)c1ccccc1F		inconclusive: 4.61 µM [inhibitor, partial curve]
NC(=O)Cc1c[nH]c2ncc(-c3ccc(F)cc3)cc12		inconclusive: 15.8 µM [inhibitor, partial curve]
O=C1OC2(c3ccccc31)c1cc(Br)c(O)c(Br)c1Oc1c2cc(Br)c(O)c1Br		active: 3.26 µM
COc1ccccc1N1CCN(S(=O)(=O)CCNC(=O)COc2ccc(F)cc2)CC1	inactive: 0.724%	
O=c1c(O)c(-c2ccc(O)c(O)c2)oc2cc(O)cc(O)c12		active: 0.461 µM
CN(C)c1cc(=O)c2ccnc(N3CCN(c4ccccn4)CC3)c2o1		inconclusive: 29.8 µM [inhibitor, partial curve, poor fit]

SMILES	activity change, negative = inhibition	Potency
CC(C)(C)c1ccc(C(=O)Nc2cc(Cl)c(Br)cc2C(=O)O)cc1		inconclusive: 18.4 µM [inhibitor, partial curve]
COc1ccc(CNC(=O)C(=O)NCC(c2ccco2)S(=O)(=O)c2ccc(Cl)cc2)cc1 (centres undefined)	inactive: 20.4%	
COc1ccc(S(=O)(=O)N(CC(=O)NC(C)c2ccccc2)c2ccc(C)cc2)cc1OC (centres undefined)		inconclusive: 23.1 µM [inhibitor, single point]
Cc1ccc(-c2nnc3ccc(-c4ccoc4)nn23)nc1	inactive: 0.0128% [at 92.2 µM]	
CCCCCNC(=O)c1ccc2c(c1)ncn2-c1cccc(C)c1		inconclusive: 23.1 µM [inhibitor, partial curve, poor fit]
c1cc(OCCN2CCCCC2)cc(-c2n[nH]c3ccc(-c4ncn[nH]4)cc23)c1		inconclusive: 10.3 µM [inhibitor, partial curve]
Cc1ccc(OCCCCn2cnc3ccccc32)cc1		inconclusive: 10.3 µM [inhibitor, partial curve, poor fit]
O=C(NCCc1ccccc1)c1ccc2nc(N3CCCCC3)sc2c1	inactive: -17.7%	
CN(c1ccccc1)c1cc(=O)c2ccnc(NC3CCOCC3)c2o1		inconclusive: 21.1 µM [inhibitor, partial curve]
COc1cccc(NC(=O)CSCc2cc(=O)c3ccc(C)c(C)c3[nH]2)c1		inconclusive: 25.9 µM [inhibitor, partial curve, poor fit]
CC(C)Oc1ccc2c(NC(=O)CN3CCCC3=O)nn(Cc3ccccc3)c2c1	inactive: -3.72%	
O=C(O)c1cccc(Nc2ncnc3ccc(Br)cc23)c1		inconclusive: 20.6 µM [inhibitor, partial curve]
O=C(O)c1ccc(-c2ncc3cnc(-c4cccc(F)c4)cn23)cc1		inconclusive: 37.5 µM [inhibitor, single point]
CN(C)C(=O)c1cc(-c2ccc(Cl)cc2)cn1C		inconclusive: 14.6 µM [inhibitor, partial curve]
NC(=O)c1ccc(Nc2cnc3ccc(-c4ccccc4)nn23)cc1	inactive: -21.6%	
Cc1cccc(N2CCN(c3ccc(C(=O)O)cc3NC(=O)c3cccc(Cl)c3)CC2C)c1 (centres undefined)		inconclusive: 8.2 µM [inhibitor, partial curve]
C#C[C@]1(OC(C)=O)CC[C@H]2[C@@H]3CCC4=C/C(=N/O)CC[C@@H]4[C@H]3CC[C@@]21CC		inconclusive: 4.61 µM [inhibitor, full curve]
CC(C)C(=O)c1cc2c(cc1NC(=O)c1ccccc1F)OCCO2	inactive: -16.5%	
O=C(NCc1cccs1)c1ccc2c(c1)sc1nc(-c3ccccc3)cn12		inconclusive: 4.11 µM [inhibitor, partial curve]
Cc1cccc2c1NC(=O)C2(c1ccc(O)cc1)c1ccc(O)cc1	inactive: 1.22%	
Cn1cncc1C(N)(c1ccc(Cl)cc1)c1ccc2c(c1)c(-c1cccc(Cl)c1)cc(=O)n2C (centres undefined)		inconclusive: 32.6 µM [inhibitor, partial curve, poor fit]
COc1cncc(-c2cc(C(=O)NCc3cccnc3)c3c(c2)N(C)CCO3)c1		inconclusive: 42.1 µM [inhibitor, partial curve, poor fit]
COc1ccc(-c2ccc3ncc(Nc4cc(F)cc(N5CCOCC5)c4)n3n2)cn1		inconclusive: 2.98 µM [inhibitor, full curve]

SMILES	activity change, negative = inhibition	Potency
CC1=C(C(=O)Nc2ccc(C)cc2C)C(c2cccs2)n2nc(SCc3ccccc3Cl)nc2N1 (centres undefined)	inactive: 23.2%	
C[C@]1(C2CCCC2)Cc2cc(OCC(=O)O)c(Cl)c(Cl)c2C1=O		active: 7.31 µM
O=C1C(SCCO)=C(SCCO)C(=O)c2ccccc21		active: 10.3 µM
CCCC(=O)OCOC(=O)C1=C(C)NC(C)=C(C(=O)OC)C1c1cccc(Cl)c1Cl (centres undefined)	inactive: -6.47%	
O=C(CS)Nc1ccccc1		inconclusive: 23.1 µM [inhibitor, partial curve, poor fit]
COc1cccc(-c2ncc3c(n2)OCCN(c2ccccc2)C3=O)c1		inconclusive: 42.1 µM [inhibitor, partial curve, poor fit]
CC(C)C(=O)N1c2ncnn2C2(CCCCC2)[C@@H]2CCCC[C@@H]21	inactive: -16.9%	
CC[C@H](C)[C@H](N)C(=O)N1CCC2(CCC(=O)N(Cc3ccccc3)C2)CC1	inactive: -6.24%	
CC(=O)Nc1ccc(-n2c(CCC(=O)O)ccc2-c2ccc(Br)cc2)cc1	inactive: -8.4%	
COCCCNc1nc(NCc2cccc(Cl)c2)c2cnn(C)c2n1		inconclusive: 23.1 µM [inhibitor, single point]
COC(=O)c1c(NC(=O)COc2ccc(OC)cc2)sc2c1CCC(C)C2 (centres undefined)	inactive: -12.1%	
CNC(=O)c1cc(-c2ccc(C)cc2)cc2c1OCCN2Cc1cccnc1		inconclusive: 14.9 µM [inhibitor, partial curve]
CC(C)Oc1cccc(-c2nnc(CCC(=O)NCCc3cccs3)c(=O)[nH]2)c1		inconclusive: 10.3 µM [inhibitor, partial curve]
COc1ccccc1C(=O)Nc1ccc(S(=O)(=O)Nc2nc(C)cc(C)n2)cc1		inconclusive: 9.2 µM [inhibitor, partial curve]
O=C1CC(c2ccc(F)cc2)c2c(c3ccccc3[nH]c2=O)O1 (centres undefined)	inactive: 12.7%	
CCOC(=O)c1ccc(NC(=O)CSc2nccn2-c2cc(C)cc(C)c2)cc1		inconclusive: 7.31 µM [inhibitor, partial curve]
COc1ccc(NC(=O)c2cc(-c3ccc[nH]3)n[nH]2)cc1F		inconclusive: 11.6 µM [inhibitor, partial curve]
O=C(CSc1oc(-c2ccco2)nc1S(=O)(=O)c1ccc(Cl)cc1)c1ccc(Cl)cc1	inactive: -13.3%	
COc1ccccc1N1CCN(S(=O)(=O)c2ccc(F)c(C(=O)Nc3ccc(C)c(F)c3)c2)CC1	inactive: 2.84%	
COc1cc(O)cc(/C=C/c2cccc(O)c2)c1		inconclusive: 18.4 µM [inhibitor, partial curve]
OC[C@H]1C[C@@H](NCc2cccc3c2OCO3)[C@H](O)[C@@H]1O		inconclusive: 35.5 µM [inhibitor, single point]
Cc1ccc(-n2nc(CO)c(C(=O)NC(C)CCCc3ccccc3)n2)cc1 (centres undefined)	inactive: -18.5%	
Cc1c(Cl)cccc1-n1ncc(C(=O)Nc2ccc(Br)cc2F)c1C1CCNCC1		inconclusive: 9.2 µM [inhibitor, partial curve, poor fit]
